{"source": "patent US12611438B2", "about": "“Antiviral composition comprising a nucleolin-binding peptide” (ANYGEN CO., LTD., priority 2021, dated 2026)", "test_system": "MCF-10A, CCD-18Co", "test": "Bead whole-cell binding assay, normal cell lines", "details": "peptide on OBOC beads", "data": [{"sequence": "AVARARRRR (Synthetic construct AGM-332)", "values": [{"measurement": "binding to normal human breast cell line MCF-10A", "result": "did not bind to a normal human breast cell line (MCF-10A) or weakly bound thereto"}]}]}
